Repeats are few or missing, and single values can be far off.
Experiments:
CHO-K1 [1] = test: relative survival (nuclei to bead ratio vs DMSO control) (% of vehicle control); higher = more surviving cells
Method: (§1)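 Flow-cytometric in vitro micronucleus assay (Litron MicroFlow) in CHO-K1 cells in 96-well plates, 19 concentrations (4.5-200 µM, n=1 per concentration). Without S9, cells were exposed for 24 h and sampled at 48 h. With Aroclor 1254-induced rat liver S9, cells were exposed for 3-4 h and sampled at 27-28 h. Read-outs are %MN and %hypodiploid nuclei relative to nucleated events, and relative survival as the nuclei-to-bead ratio versus the 1% DMSO vehicle control (x100).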

CHO-K1 [2] = test: micronucleus frequency (% of nucleated events); higher = more micronuclei (genotoxic)
CHO-K1 [3] = test: hypodiploid nuclei frequency (% of nucleated events); higher = more hypodiploid events (aneugenic)
Method: as §1
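Throughout, for hypodiploid nuclei frequency (% of nucleated events): hypodiploid nuclei gated on a flow cytometer with 488 nm excitation after SYTOX Green staining, cultures at 37 °C, positive controls vinblastine without S9 and cyclophosphamide with S9.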
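Throughout, for micronucleus frequency (% of nucleated events): cells lysed with nuclei stained by SYTOX Green, then micronucleus-gated events counted against nucleated events by flow cytometry with 488 nm excitation.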
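Throughout, for relative survival (nuclei to bead ratio vs DMSO control): Lysed-cell nuclei stained with SYTOX Green and counted against counting beads by flow cytometry at 488 nm excitation, with vinblastine (no S9) and cyclophosphamide (plus S9) as positive controls.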

COP(=O)(OC)OC=C(Cl)Cl [Dichlorvos]
Settings	hypodiploid nuclei frequency, CHO-K1 [3] [%]	micronucleus frequency, CHO-K1 [2] [%]	relative survival, CHO-K1 [1]
concentration: 2.25 (µM), S9 metabolic activation: with S9, exposure time: 3-4 hours	0.28	1.6	106
concentration: 2.25 (µM), S9 metabolic activation: without S9, exposure time: 24 hours	0.82	1.3	106
concentration: 2.81 (µM), S9 metabolic activation: with S9, exposure time: 3-4 hours	0.2	1.6	122
concentration: 2.81 (µM), S9 metabolic activation: without S9, exposure time: 24 hours	0.78	1.52	90.3
concentration: 3.52 (µM), S9 metabolic activation: with S9, exposure time: 3-4 hours	0.18	1.26	113
concentration: 3.52 (µM), S9 metabolic activation: without S9, exposure time: 24 hours	0.64	1.2	105
concentration: 4.4 (µM), S9 metabolic activation: with S9, exposure time: 3-4 hours	0.32	1.84	109
concentration: 4.4 (µM), S9 metabolic activation: without S9, exposure time: 24 hours	0.52	1.22	120
concentration: 5.5 (µM), S9 metabolic activation: with S9, exposure time: 3-4 hours	0.34	0.94	121
concentration: 5.5 (µM), S9 metabolic activation: without S9, exposure time: 24 hours	0.78	1.72	118
concentration: 6.9 (µM), S9 metabolic activation: with S9, exposure time: 3-4 hours	0.34	2.58	104
concentration: 6.9 (µM), S9 metabolic activation: without S9, exposure time: 24 hours	0.58	1.08	122
concentration: 8.6 (µM), S9 metabolic activation: with S9, exposure time: 3-4 hours	0.2	0.96	121
concentration: 8.6 (µM), S9 metabolic activation: without S9, exposure time: 24 hours	0.44	1.38	154
concentration: 10.7 (µM), S9 metabolic activation: with S9, exposure time: 3-4 hours	0.4	1.64	130
concentration: 10.7 (µM), S9 metabolic activation: without S9, exposure time: 24 hours	0.56	1.56	112
concentration: 13.4 (µM), S9 metabolic activation: with S9, exposure time: 3-4 hours	0.28	1.2	103
concentration: 13.4 (µM), S9 metabolic activation: without S9, exposure time: 24 hours	0.62	1.5	80.9
concentration: 16.8 (µM), S9 metabolic activation: with S9, exposure time: 3-4 hours	0.28	1.28	93.6
concentration: 16.8 (µM), S9 metabolic activation: without S9, exposure time: 24 hours	0.66	1.28	81.3
concentration: 21 (µM), S9 metabolic activation: with S9, exposure time: 3-4 hours	0.18	0.9	73.9
concentration: 21 (µM), S9 metabolic activation: without S9, exposure time: 24 hours	0.54	1.4	95.7
concentration: 26.2 (µM), S9 metabolic activation: with S9, exposure time: 3-4 hours	0.22	1.16	115
concentration: 26.2 (µM), S9 metabolic activation: without S9, exposure time: 24 hours	0.88	1.76	88.3
concentration: 32.8 (µM), S9 metabolic activation: with S9, exposure time: 3-4 hours	0.24	1.12	93.3
concentration: 32.8 (µM), S9 metabolic activation: without S9, exposure time: 24 hours	0.7	1.54	80
concentration: 41 (µM), S9 metabolic activation: with S9, exposure time: 3-4 hours	0.26	0.84	122
concentration: 41 (µM), S9 metabolic activation: without S9, exposure time: 24 hours	0.84	1.3	112
concentration: 51 (µM), S9 metabolic activation: with S9, exposure time: 3-4 hours	0.32	1.24	79.3
concentration: 51 (µM), S9 metabolic activation: without S9, exposure time: 24 hours	0.8	1.54	115
concentration: 64 (µM), S9 metabolic activation: with S9, exposure time: 3-4 hours	0.12	0.76	80.5
concentration: 64 (µM), S9 metabolic activation: without S9, exposure time: 24 hours	0.88	2.06	129
concentration: 80 (µM), S9 metabolic activation: with S9, exposure time: 3-4 hours	0.18	1.12	73.9
concentration: 80 (µM), S9 metabolic activation: without S9, exposure time: 24 hours	0.9	1.96	106
concentration: 100 (µM), S9 metabolic activation: with S9, exposure time: 3-4 hours	0.14	1.41	64.8
concentration: 100 (µM), S9 metabolic activation: without S9, exposure time: 24 hours	1.04	1.58	109

CC(C)(OOC(C)(C)c1ccccc1)c1ccccc1 [Dicumyl peroxide]
Settings	hypodiploid nuclei frequency, CHO-K1 [3] [%]	micronucleus frequency, CHO-K1 [2] [%]	relative survival, CHO-K1 [1]
concentration: 4.5 (µM), S9 metabolic activation: with S9, exposure time: 3-4 hours	0.2	1.06	101
concentration: 4.5 (µM), S9 metabolic activation: without S9, exposure time: 24 hours	0.8	2.18	109
concentration: 5.63 (µM), S9 metabolic activation: with S9, exposure time: 3-4 hours	0.32	1.34	87.7
concentration: 5.63 (µM), S9 metabolic activation: without S9, exposure time: 24 hours	0.72	1.66	83.7
concentration: 7.04 (µM), S9 metabolic activation: with S9, exposure time: 3-4 hours	0.32	1.12	99.9
concentration: 7.04 (µM), S9 metabolic activation: without S9, exposure time: 24 hours	1.04	2.34	89
concentration: 8.8 (µM), S9 metabolic activation: with S9, exposure time: 3-4 hours	0.38	1.2	104
concentration: 8.8 (µM), S9 metabolic activation: without S9, exposure time: 24 hours	0.78	1.66	91.1
concentration: 11 (µM), S9 metabolic activation: with S9, exposure time: 3-4 hours	0.34	1.3	87.3
concentration: 11 (µM), S9 metabolic activation: without S9, exposure time: 24 hours	0.68	2.2	87.8
concentration: 13.7 (µM), S9 metabolic activation: with S9, exposure time: 3-4 hours	0.18	1	90.5
concentration: 13.7 (µM), S9 metabolic activation: without S9, exposure time: 24 hours	0.98	1.56	91.1
concentration: 17.2 (µM), S9 metabolic activation: with S9, exposure time: 3-4 hours	0.46	1.54	106
concentration: 17.2 (µM), S9 metabolic activation: without S9, exposure time: 24 hours	1	1.34	88.2
concentration: 21.5 (µM), S9 metabolic activation: with S9, exposure time: 3-4 hours	0.26	1.06	96
concentration: 21.5 (µM), S9 metabolic activation: without S9, exposure time: 24 hours	1.08	1.78	108
concentration: 26.8 (µM), S9 metabolic activation: with S9, exposure time: 3-4 hours	0.3	1.22	99.1
concentration: 26.8 (µM), S9 metabolic activation: without S9, exposure time: 24 hours	0.64	1.58	89.8
concentration: 33.6 (µM), S9 metabolic activation: with S9, exposure time: 3-4 hours	0.28	0.86	98
concentration: 33.6 (µM), S9 metabolic activation: without S9, exposure time: 24 hours	0.62	2.06	105
concentration: 41.9 (µM), S9 metabolic activation: with S9, exposure time: 3-4 hours	0.14	0.96	92.3
concentration: 41.9 (µM), S9 metabolic activation: without S9, exposure time: 24 hours	0.66	2.04	103
concentration: 52.4 (µM), S9 metabolic activation: with S9, exposure time: 3-4 hours	0.28	0.9	94.5
concentration: 52.4 (µM), S9 metabolic activation: without S9, exposure time: 24 hours	0.66	2.54	86.7
concentration: 65.5 (µM), S9 metabolic activation: with S9, exposure time: 3-4 hours	0.32	1.3	97.2
concentration: 65.5 (µM), S9 metabolic activation: without S9, exposure time: 24 hours	0.94	2.12	84.8
concentration: 81.9 (µM), S9 metabolic activation: with S9, exposure time: 3-4 hours	0.32	1.5	98
concentration: 81.9 (µM), S9 metabolic activation: without S9, exposure time: 24 hours	1.02	2.04	105
concentration: 102 (µM), S9 metabolic activation: with S9, exposure time: 3-4 hours	0.18	1.64	91.4
concentration: 102 (µM), S9 metabolic activation: without S9, exposure time: 24 hours	1.26	2.42	111
concentration: 128 (µM), S9 metabolic activation: with S9, exposure time: 3-4 hours	0.38	2.28	98.8
concentration: 128 (µM), S9 metabolic activation: without S9, exposure time: 24 hours	1.52	2.36	69.2
concentration: 160 (µM), S9 metabolic activation: with S9, exposure time: 3-4 hours	0.92	4.12	70.5
concentration: 160 (µM), S9 metabolic activation: without S9, exposure time: 24 hours	1.04	2.36	59
concentration: 200 (µM), S9 metabolic activation: with S9, exposure time: 3-4 hours	1.4	5.26	49.5
concentration: 200 (µM), S9 metabolic activation: without S9, exposure time: 24 hours	–	–	34.9
